Measured values as given in PubChem BioAssay AID1745853 (National Center for Advancing Translational Sciences (NCATS), 2022).
This is one part of the list. The main result of the screen is listed elsewhere. These columns were measured beside it and carry no call.

Legend:
Assay in all cases: Primary Screen for Target Class Profiling of Small Molecule Inhibitors of Methyltransferases
[1] = target: Glycine N-methyltransferase (Homo sapiens) (UniProt Q14749); settings: purified enzyme, MTase-Glo SAH luminescence; measured here: GNMT inhibition; at 40 µM; stronger effect = lower value
Summary of the method: (§1)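 Each enzyme was assayed with SAM and its substrate. SAH formation detected by MTase-Glo luminescence; single-point 40 uM screen[…].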

[2] = target: Guanidinoacetate N-methyltransferase (Homo sapiens) (UniProt Q14353); settings: purified enzyme, MTase-Glo SAH luminescence; measured here: GAMT inhibition; at 40 µM; stronger effect = lower value
Summary of the method: as §1

[3] = target: Histamine N-methyltransferase (Homo sapiens) (UniProt P50135); settings: purified enzyme, MTase-Glo SAH luminescence; measured here: HNMT inhibition; at 40 µM; stronger effect = lower value
Summary of the method: as §1

[4] = target: Nicotinamide N-methyltransferase (Homo sapiens) (UniProt P40261); settings: purified enzyme, MTase-Glo SAH luminescence; measured here: NNMT inhibition; at 40 µM; stronger effect = lower value
Summary of the method: as §1

[5] = target: Phenylethanolamine N-methyltransferase (Homo sapiens) (UniProt P11086); settings: purified enzyme, MTase-Glo SAH luminescence; measured here: PNMT inhibition; at 40 µM; stronger effect = lower value
Summary of the method: as §1
% is scaled to controls: 0 for no effect and ±100 for the full control effect.

Compound	activity change, negative = inhibition [1] [%]	activity change, negative = inhibition [2] [%]	activity change, negative = inhibition [3] [%]	activity change, negative = inhibition [4] [%]	activity change, negative = inhibition [5] [%]
Cc1ccc(CN2C(=O)COC[C@H]2C(=O)N2CCN(c3cccc(Cl)c3)CC2)cc1	-9.05	-0.527	-5.18	-2.23	-1.67
CC1(C(=O)NC2CCCCCC2)Cc2ccccc2C(=O)N1Cc1cccs1 (stereo not drawn)	-0.937	2.83	7.75	2.23	1.51
O=C(C1CCCC1)N1CCCC(C(=O)N2CCC(c3nc4ccncc4[nH]3)C2)C1 (stereo not drawn)	-7.63	-11.7	-4.89	-15.3	-7.51
Cc1ccc(C)c(N2C(=O)c3cc4ccccc4n3CC2(C)C(=O)NCCC(C)C)c1 (stereo not drawn)	4.89	2.32	5.04	4.03	4.37
CC1CCN(S(=O)(=O)c2ccc3c(ccn3CC(=O)NCCc3ccccc3Cl)c2)CC1	-1.68	0.005	-7.26	-7.84	-6.83
O=C(Cn1nc2nc(Nc3ccc(F)cc3)ccn2c1=O)Nc1ccccc1F	2.16	2.96	8.87	-4.17	-1.39
O=S(=O)(c1ccccc1)N1CCC(F)(c2nc(Cc3ccccc3)no2)CC1	-9.24	-11.7	-3.07	-12.5	-10.8
CC1(C(=O)NC2CCCCCC2)Cn2c(cc3occc32)C(=O)N1Cc1ccccc1Br (stereo not drawn)	-0.534	3.38	2.1	-6.37	-3.46
N#Cc1ccccc1-c1cc2c(ccn2Cc2ccncc2)c(N2CCOCC2)n1	-68.7	-25.8	-16.4	-23.4	-62.1
CC(C)Oc1ccc(CN2C(=O)c3nc4ccccc4n3CC2(C)C(=O)NC2CCCCCC2)cc1 (stereo not drawn)	4.08	1.17	10.2	5.87	2.66
O=C(CCCCCCC(=O)Nc1ccc(C2OC(CSc3nc(-c4ccccc4)c(-c4ccccc4)o3)CC(c3ccc(CO)cc3)O2)cc1)NO (stereo not drawn)	-28.4	-2.36	-32.9	-33.8	-17.4
Cc1ccc(NS(=O)(=O)c2cc3c(cc2N[C@@H](C)CO)NC(=O)CC3)cc1C		4.82		-17.8	-21
CC(C)CCN1C(=O)c2ccccc2CC1(C)C(=O)NC1CCC(C)CC1 (stereo not drawn)	-5.07	0	11.7	6.74	0.875
CC(C)OCCCn1c(=O)c2ccccc2n2c(CCC(=O)NCc3ccc(Cl)cc3)nnc12	-7.84	-2.88	-0.235	-9.19	-6.96
CCCn1c(=O)c2ccc(C(=O)NCC(C)C)cc2n2c(=O)n(CC(=O)Nc3ccc(C)cc3C)nc12	6.2	0	6.95	-1.2	5.45
COCCOCC1(CNC(=O)C2CCOCC2)C[C@@H](O)[C@@H](O)C1 (stereo partly drawn)	-1.33	-1.63	0.38	-5.99	-14.6
O=C(O)Cc1cn([C@@H]2O[C@H](CO)[C@@H](O)[C@H](O)[C@H]2O[C@@H]2O[C@H](CO)[C@@H](O)[C@H](O)[C@H]2O)c2ccccc12	0	5.54	10.2	-6.46	0.196
CC1=CC[C@@]2(C)CC[C@@](O)(C(C)C)[C@@H]2[C@@H](O)C1	0	3.88	6.46	-13	3.78
COC(=O)CCC(=O)OC[C@]1(C)CCC[C@@]2(C)C3CC[C@]4(C)C=CC3(CCC12)C4 (stereo partly drawn)	-1.67	-16.3	-8.62	-18.5	-8.75
CC(C)c1cc2n(n1)CC(C)(C(=O)NC1CCCCC1)N(Cc1ccccc1)C2=O (stereo not drawn)	1.1	4.89	0.437	4.7	0.177
CCC(C)NC(=O)Cn1ccc2cc(S(=O)(=O)N3CCCCC3)ccc21 (stereo not drawn)	7.2	0	7.37	5.12	3.68
CC(C)Cn1c(=O)c2cc(F)ccc2n2c(SCC(=O)Nc3ccccc3F)nnc12	-9.8	5.54	6.86	-14.7	1.54
CC(C)CNC1(Cc2cc(CN3CCOCC3)on2)COC1	-0.091	0.844	3.14	-2.26	1.22
COc1ccc(CN2C(=O)c3nc4ccccc4n3CC2(C)C(=O)NC2CCCC2)cc1 (stereo not drawn)	2.04	4.71	4.3	3.02	1.82
COc1ccc(C)cc1NS(=O)(=O)c1cc2c(cc1C)n(C)c(=O)n2C	1.64	5.95	2.84	8.61	3.02
CCOC(=O)c1cc2n(n1)CC(C)(C(=O)NCc1ccc(C)cc1)N(c1ccc(OC)cc1)C2=O (stereo not drawn)	5.44	0	8.78	1.57	4.18
Cc1cccc(N2CCN(C(=O)CCc3nnc4n(CCc5ccccc5)c(=O)c5ccccc5n34)CC2C)c1 (stereo not drawn)	-7.83	1.24	-5.82	-12.2	-7.4
CC(C)c1nc(CNC(=O)c2ccc(N(C)Cc3ccccn3)nc2)no1	-0.347	-3.45	-7.83	-5.3	0.063
CC(=O)Nc1ccc(C2(C(=O)NCc3ccc(F)cc3)CCC2)cc1	-1.8	1.55	3.06	1.73	-9.12
CCCn1c(=O)c2ccccc2n2c(=O)n(CC(=O)NCc3cccc(OC)c3)nc12	-6.04	1.3	-1.45	-4.22	-4.19
